We go through 219 sequences from publication PMC4242493.

Some of the results follow. The list includes weakly bound sequences.

This experiment deals with MaxL homodimer (UniProt P61244). Put plainly: universal protein-binding microarray (PBM). The following applies: PBS-based mixture, 10 nM His-tagged protein dimer, 2% milk, 200 ng/uL BSA, 50 ng/uL salmon testes DNA, 0.02% TX-100; detection with Alexa 488 anti-His …; high values mean tight binding; most listed sequences are background and not binding sites; double strand, one strand shown.
Chain of UniProt P61244 (P61244 whole entry): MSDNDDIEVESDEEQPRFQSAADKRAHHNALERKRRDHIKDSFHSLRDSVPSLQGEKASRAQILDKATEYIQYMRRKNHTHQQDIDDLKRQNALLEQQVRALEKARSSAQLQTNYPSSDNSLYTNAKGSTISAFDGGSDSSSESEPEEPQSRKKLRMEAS
On to AGTCGAGC, for which the binding signal (normalized occupancy) is 0.0692.
To AATAGAAA belongs 0.0789; to AACACCGA, 0.0761; to AACACGAC, 0.0822.
To CAGAAGTC belongs 0.0766; to CGACAGCA, 0.0797; to CTGTGGTC, 0.0713.
To AGCTGACG belongs 0.0719; to GCGAGTTA, 0.0723.
Turning to CCAAGAAA, the binding signal (normalized occupancy) amounted to 0.0713.
Next, ATACCTGA: 0.0791; AAACCGAG: 0.0668; CTAGACTA: 0.0726.
Next, AGTGAACT: 0.0691; CACCTGCG: 0.0879.
Next, ACGCTAAG: 0.0823; GGCCTTTA: 0.0759.
Turning to GCGAGCCC, the binding signal (normalized occupancy) was 0.0746.
Next, GCGTGCGA: 0.0911.
AAGCTTGA: the binding signal (normalized occupancy) turned out to be 0.0669.
To AGAACCGC belongs 0.0681; to CAACCACG, 0.0943.
To CCTATGTA belongs 0.083.
As to ACCAACGC, the binding signal (normalized occupancy) was 0.078.
For GACCCTCC, the binding signal (normalized occupancy) stood at 0.0735.
Next, CACGTACC: 0.0843; GCTGTTTA: 0.0716.
Next, CAGCACCC: 0.0752; CCCTTCTA: 0.078.
To TACCGTCA belongs 0.0756; to GATTGTGC, 0.079.
CCGTTCAA: the binding signal (normalized occupancy) was found to be 0.0737.
To AGGCTGCC belongs 0.0704; to CCATAAGC, 0.0819.
In the case of AATTCTAC, the binding signal (normalized occupancy) is 0.0758.
In the case of ATACTCAT, the binding signal (normalized occupancy) worked out at 0.0841.
To CTCCCTGC belongs 0.0727; to CTTCGCGC, 0.0677; to CGTTGAAC, 0.0711.
For the sequence GAAACTAC, the binding signal (normalized occupancy) was found to be 0.0727.
Next, AGCCCACG: 0.0842.
Next, CTTGTGCA: 0.08.
To AATGATCA belongs 0.079; to GTGCAAGA, 0.0761; to AATTGTAA, 0.0757.
As to GTCTAAAC, the binding signal (normalized occupancy) was found to be 0.0747.
Next, CCCGGCGC: 0.0656; ACTACAGT: 0.0741.
To ACCACAAC belongs 0.0788.
To GACATTGA belongs 0.078; to CTCTATTA, 0.0807.
Turning to ATCTTATG, the binding signal (normalized occupancy) is 0.0775.
To AGTACCAT belongs 0.0799; to CGGTTTTC, 0.0658; to ATAGAGTC, 0.0769.
Next, CAAAACCC: 0.0776.
Next, TGATTTAA: 0.0746; ATCGCACG: 0.0869.
With GGTTGGAA, the binding signal (normalized occupancy) is 0.0693.
Next, CGCGCATC: 0.0763; GGCCTACA: 0.0738; TGCGCCAA: 0.0753.
In the case of CATATCCG, the binding signal (normalized occupancy) stood at 0.0835.
As for CACTATGC, the binding signal (normalized occupancy) amounted to 0.0731.
Next, AGACGGCG: 0.0699; CGCACCCG: 0.0715.
To GAGTTTGA belongs 0.0714.
To GTGAACAC belongs 0.0795; to CCGCAGTC, 0.0686; to AAAGGGTT, 0.0754.
In the case of CGTAACGC, the binding signal (normalized occupancy) turned out to be 0.0778.
As for CCAAAGCG, the binding signal (normalized occupancy) was 0.0676.
Next, GGGTGGCA: 0.0751; GCTCTATA: 0.081.
Regarding ACCGTCTA, the binding signal (normalized occupancy) came out at 0.0715.
To ACCAAATA belongs 0.0745; to ACGCAAGC, 0.0724; to AAAACTTG, 0.0672.
To GGGACGCA belongs 0.0774; to GGGATAAA, 0.0813; to AAAAAATG, 0.0751.
Next, CGCTTATA: 0.0805; ACGGGCAT: 0.0766.
CAGGCACA: the binding signal (normalized occupancy) was 0.0804.
Next, CCAAATAC: 0.0749.
To ATTTACGG belongs 0.0721.
Next, CGATCGTC: 0.0707; CTAGATCA: 0.0771.
Regarding AAAGCGCA, the binding signal (normalized occupancy) came to 0.0715.
Next, AGGATAAA: 0.0747; AAAGCTGA: 0.0683.
Next, CACTGCTC: 0.0738; TGGCGCCA: 0.0698.
To CGGAAATA belongs 0.0733; to CATTAGGC, 0.0742; to ATAGGTGC, 0.084.
As to AGGCGCAT, the binding signal (normalized occupancy) stood at 0.0787.
Next, GAATGGAA: 0.0714; CACCATCA: 0.0874; CACACACC: 0.083.
Next, ATTCGCCA: 0.0789; TCGTGCAA: 0.0766; GGATTGAC: 0.0725.
To CTAACCGC belongs 0.07; to CTGGCCGC, 0.0752.
For AGATATAA, the binding signal (normalized occupancy) turned out to be 0.077.
On to ATCATATC, for which the binding signal (normalized occupancy) worked out at 0.0861.
Next, TCATTGGA: 0.0693; AATACCCA: 0.0787.
To ACCCCGGG belongs 0.0739; to AACCAAAC, 0.0724.
Next, GTTAGGAA: 0.076; GAAAGGCC: 0.071; CACGCTCG: 0.0939.
On to ACCCGCAA, for which the binding signal (normalized occupancy) amounted to 0.0725.
To ACACCCCA belongs 0.0864; to AATACCAT, 0.0843.
To CTTAAAAC belongs 0.071; to CGCAATAG, 0.0692; to AATCCGGC, 0.0689.
To AGGAAGGA belongs 0.0765.
Take AAGCGGTA: the binding signal (normalized occupancy) was determined as 0.0729.
On to CTAAAGTA, for which the binding signal (normalized occupancy) worked out at 0.0751.
Regarding GACGTGAA, the binding signal (normalized occupancy) amounted to 0.0766.
Next, GGTCAGTA: 0.0723.
For CCCTCGAA, the binding signal (normalized occupancy) was 0.0795.
Next, AAATACTC: 0.0734; AACCCTCG: 0.0775.
To ACTCGTAA belongs 0.0709; to ATTTGACG, 0.0755.
Next, AGGCTTAC: 0.0686; GCATATAA: 0.0812; GAACTGCC: 0.0732.
On to CCGAATCA, for which the binding signal (normalized occupancy) was 0.0772.
For GGGTCTGA, the binding signal (normalized occupancy) stood at 0.0713.
CCCCTCGC: the binding signal (normalized occupancy) was 0.0758.
To CGGGCAAC belongs 0.0672; to GTATGCTA, 0.0818.
On to CCGTTGAC, for which the binding signal (normalized occupancy) was 0.0756.
To TCATACAA belongs 0.0763; to CGATGCAA, 0.0703.
Next, ATCTTCCC: 0.0773.
Next, AAAATACC: 0.0726; GACTACTC: 0.0777.
With GCGCTAAC, the binding signal (normalized occupancy) stood at 0.0691.
Next, ACTCGTAT: 0.0768.
To GGATCGCA belongs 0.078; to ATGTAGAA, 0.0828.
To TCGACCAA belongs 0.0711; to CGGAGCTC, 0.0681; to AGGACTGA, 0.0723.
Take GCCGTGGA: the binding signal (normalized occupancy) is 0.0736.
To GATCGCCC belongs 0.0778; to AACTCGTC, 0.0781; to AACTGGTG, 0.0788.
To AGGAGCCA belongs 0.0769.
To TCAACAGA belongs 0.0736; to AATCTGGC, 0.0705.
As to CATGCCGC, the binding signal (normalized occupancy) was determined as 0.105.
In the case of ACAGCTAC, the binding signal (normalized occupancy) worked out at 0.0756.
Turning to CAACCTTA, the binding signal (normalized occupancy) stood at 0.0759.
As to ATTGCCTA, the binding signal (normalized occupancy) was 0.0755.
To AGATTTTG belongs 0.0755; to CAAAGGAA, 0.0723.
Next, CATATCCA: 0.089; CCATCCGC: 0.0781; GCACCCAC: 0.0831.
To CAGTTATG belongs 0.077; to CCGTGTCA, 0.088.
For CCAGCGCA, the binding signal (normalized occupancy) worked out at 0.0714.
On to CGGGGTTC, for which the binding signal (normalized occupancy) came to 0.0762.
To GTCAGTCA belongs 0.0741; to GGGGGTCA, 0.082; to GCCAGGGC, 0.0697.
For the sequence AGTTTAAC, the binding signal (normalized occupancy) turned out to be 0.0739.
Turning to CACTGCCC, the binding signal (normalized occupancy) worked out at 0.0732.
To TATGCGAA belongs 0.0764; to CCGACTCA, 0.0737.
With CGTAGCAA, the binding signal (normalized occupancy) was found to be 0.0735.
To GATTCCAC belongs 0.0828.
Next, ACTAAATC: 0.0698; AGGTCGAG: 0.0717; CGTCTGTA: 0.0809.
To AACAAAAC belongs 0.0708; to ATGATTCA, 0.0831; to GAAAGCGA, 0.0679.
On to AAAGATAA, for which the binding signal (normalized occupancy) amounted to 0.0737.
For AGTGTACG, the binding signal (normalized occupancy) turned out to be 0.0794.
To GCTCACCA belongs 0.0765.
Next, CTCATCAA: 0.0791; CGAGCTGC: 0.0672.
To AGATTGAG belongs 0.0761; to AATCAGAG, 0.0775.
Regarding ACCGCAGT, the binding signal (normalized occupancy) came to 0.0731.
Next, ACTGAAAG: 0.0706; ATTTGGTG: 0.0793.
Next, AAGGTACT: 0.0721.
Regarding AGGGTCGA, the binding signal (normalized occupancy) amounted to 0.0706.
Next, GGACTTAC: 0.0687; AACATGGT: 0.0843; CAAGATAG: 0.0769.
Turning to ATTCTACC, the binding signal (normalized occupancy) was determined as 0.0801.
As for CGAACGAG, the binding signal (normalized occupancy) was 0.0777.
Next, CCGGGGGC: 0.0651; ACGGAGCA: 0.0747; GCCTATCA: 0.0783.
On to TCCGCGAA, for which the binding signal (normalized occupancy) was determined as 0.0721.
To GCGACAAC belongs 0.0759; to AGGACCGG, 0.068.
On to TGAACGCA, for which the binding signal (normalized occupancy) worked out at 0.078.
In the case of CTGCGACA, the binding signal (normalized occupancy) came to 0.072.
To CTGCACAA belongs 0.0745; to ATTGGGAA, 0.0755.
To GGTGGATA belongs 0.0747; to ATTTGCGC, 0.072.
Next, GCTCTTCA: 0.0752.
With CTAAAGAG, the binding signal (normalized occupancy) came out at 0.07.
As to CAATGGCC, the binding signal (normalized occupancy) was 0.0698.
Next, AGAAACGG: 0.0689.
